In paper PMC9911399, “Two distinct binding modes provide the RNA-binding protein RbFox with extraordinary sequence specificity” one finds binding signal data, which are given here for 31 molecules.

To fix the notation:
T1: RBFOX1 RRM RbFoxmut (Fox-RRM*) (Homo sapiens, UniProt Q9NWB1 109-208, R118D;E147R;N151S;E152T)
T1 sequence: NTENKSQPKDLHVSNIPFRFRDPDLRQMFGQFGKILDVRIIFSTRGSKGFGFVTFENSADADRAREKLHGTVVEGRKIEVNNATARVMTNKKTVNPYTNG

B1: AUGAACG (DNA:RNA)
RNA: GGGAGACCGGAAUUCAGAUUGUCCAUGAACGUUAAAUCCCGUCGUAGCCACCA
DNA 1: CAATCTGAATTCCGGTCTCCC
DNA 2: TGGTGGCTACGACGGGATT
B2: CACCAUU (DNA:RNA)
RNA: B1 RNA with A25C, U26A, G27C, A28C, C30U, G31U
DNA 1: CAATCTGAATTCCGGTCTCCC
DNA 2: TGGTGGCTACGACGGGATT
B3: CGUUAAA (DNA:RNA)
RNA: B1 RNA with A25C, U26G, G27U, A28U, C30A, G31A
DNA 1: CAATCTGAATTCCGGTCTCCC
DNA 2: TGGTGGCTACGACGGGATT
B4: GUGGGGU (DNA:RNA)
RNA: B1 RNA with A25G, A28G, A29G, C30G, G31U
DNA 1: CAATCTGAATTCCGGTCTCCC
DNA 2: TGGTGGCTACGACGGGATT
B5: AGCAGUA (DNA:RNA)
RNA: B1 RNA with U26G, G27C, A29G, C30U, G31A
DNA 1: CAATCTGAATTCCGGTCTCCC
DNA 2: TGGTGGCTACGACGGGATT
B6: GCAGGAU (DNA:RNA)
RNA: GGGAGACCGGAAUUCAGAUUGUCCGCAGGAUUUAAAUCCCGUCGUAGCCACCA
DNA 1: CAATCTGAATTCCGGTCTCCC
DNA 2: TGGTGGCTACGACGGGATT
B7: ACGGCUU (DNA:RNA)
RNA: B6 RNA with G25A, A27G, G29C, A30U
DNA 1: CAATCTGAATTCCGGTCTCCC
DNA 2: TGGTGGCTACGACGGGATT
B8: ACGCUAC (DNA:RNA)
RNA: B1 RNA with U26C, A28C, A29U, C30A, G31C
DNA 1: CAATCTGAATTCCGGTCTCCC
DNA 2: TGGTGGCTACGACGGGATT
B9: CCCGGUU (DNA:RNA)
RNA: B6 RNA with G25C, A27C, A30U
DNA 1: CAATCTGAATTCCGGTCTCCC
DNA 2: TGGTGGCTACGACGGGATT
B10: UUAGCGG (DNA:RNA)
RNA: B1 RNA with A25U, G27A, A28G, A29C, C30G
DNA 1: CAATCTGAATTCCGGTCTCCC
DNA 2: TGGTGGCTACGACGGGATT
B11: AGGUUUA (DNA:RNA)
RNA: B1 RNA with U26G, A28U, A29U, C30U, G31A
DNA 1: CAATCTGAATTCCGGTCTCCC
DNA 2: TGGTGGCTACGACGGGATT
B12: GCCUCUU (DNA:RNA)
RNA: B6 RNA with A27C, G28U, G29C, A30U
DNA 1: CAATCTGAATTCCGGTCTCCC
DNA 2: TGGTGGCTACGACGGGATT
B13: UAAAACA (DNA:RNA)
RNA: B1 RNA with A25U, U26A, G27A, G31A
DNA 1: CAATCTGAATTCCGGTCTCCC
DNA 2: TGGTGGCTACGACGGGATT
B14: UGAAUUC (DNA:RNA)
RNA: B1 RNA with A25U, U26G, G27A, A29U, C30U, G31C
DNA 1: CAATCTGAATTCCGGTCTCCC
DNA 2: TGGTGGCTACGACGGGATT
B15: CACUGCC (DNA:RNA)
RNA: B1 RNA with A25C, U26A, G27C, A28U, A29G, G31C
DNA 1: CAATCTGAATTCCGGTCTCCC
DNA 2: TGGTGGCTACGACGGGATT
B16: CGCGUAC (DNA:RNA)
RNA: B6 RNA with G25C, C26G, A27C, G29U, U31C
DNA 1: CAATCTGAATTCCGGTCTCCC
DNA 2: TGGTGGCTACGACGGGATT
B17: GUCAUUU (DNA:RNA)
RNA: B1 RNA with A25G, G27C, A29U, C30U, G31U
DNA 1: CAATCTGAATTCCGGTCTCCC
DNA 2: TGGTGGCTACGACGGGATT
B18: CAUACUA (DNA:RNA)
RNA: B1 RNA with A25C, U26A, G27U, A29C, C30U, G31A
DNA 1: CAATCTGAATTCCGGTCTCCC
DNA 2: TGGTGGCTACGACGGGATT
B19: UGCAUAG (DNA:RNA)
RNA: B1 RNA with A25U, U26G, G27C, A29U, C30A
DNA 1: CAATCTGAATTCCGGTCTCCC
DNA 2: TGGTGGCTACGACGGGATT
B20: UUGGGAG (DNA:RNA)
RNA: B1 RNA with A25U, A28G, A29G, C30A
DNA 1: CAATCTGAATTCCGGTCTCCC
DNA 2: TGGTGGCTACGACGGGATT
B21: AAUAUAC (DNA:RNA)
RNA: B1 RNA with U26A, G27U, A29U, C30A, G31C
DNA 1: CAATCTGAATTCCGGTCTCCC
DNA 2: TGGTGGCTACGACGGGATT
B22: CCCCUAU (DNA:RNA)
RNA: B6 RNA with G25C, A27C, G28C, G29U
DNA 1: CAATCTGAATTCCGGTCTCCC
DNA 2: TGGTGGCTACGACGGGATT
B23: GCACGUG (DNA:RNA)
RNA: B6 RNA with G28C, A30U, U31G
DNA 1: CAATCTGAATTCCGGTCTCCC
DNA 2: TGGTGGCTACGACGGGATT
B24: ACAGGCG (DNA:RNA)
RNA: B6 RNA with G25A, A30C, U31G
DNA 1: CAATCTGAATTCCGGTCTCCC
DNA 2: TGGTGGCTACGACGGGATT
B25: GCUUGAA (DNA:RNA)
RNA: B6 RNA with A27U, G28U, U31A
DNA 1: CAATCTGAATTCCGGTCTCCC
DNA 2: TGGTGGCTACGACGGGATT
B26: AUAAAAC (DNA:RNA)
RNA: B1 RNA with G27A, C30A, G31C
DNA 1: CAATCTGAATTCCGGTCTCCC
DNA 2: TGGTGGCTACGACGGGATT
B27: GUAAGGU (DNA:RNA)
RNA: B6 RNA with C26U, G28A, A30G
DNA 1: CAATCTGAATTCCGGTCTCCC
DNA 2: TGGTGGCTACGACGGGATT
B28: UAAACGU (DNA:RNA)
RNA: B6 RNA with G25U, C26A, G28A, G29C, A30G
DNA 1: CAATCTGAATTCCGGTCTCCC
DNA 2: TGGTGGCTACGACGGGATT
B29: GCUAAUG (DNA:RNA)
RNA: B1 RNA with A25G, U26C, G27U, C30U
DNA 1: CAATCTGAATTCCGGTCTCCC
DNA 2: TGGTGGCTACGACGGGATT
B30: UGUGCCG (DNA:RNA)
RNA: B1 RNA with A25U, U26G, G27U, A28G, A29C
DNA 1: CAATCTGAATTCCGGTCTCCC
DNA 2: TGGTGGCTACGACGGGATT
B31: CGGCUCG (DNA:RNA)
RNA: B1 RNA with A25C, U26G, A28C, A29U
DNA 1: CAATCTGAATTCCGGTCTCCC
DNA 2: TGGTGGCTACGACGGGATT

Residue numbers refer to the chain shown, from its start. The list shows a part of the results.

This assay has as its target T1, RBFOX1 RRM RbFoxmut (Fox-RRM*). As to the kind of experiment: EMSA; HiTS-Eq, 1 nM pool, 10 min; buffer printed only for the single-RNA assays: 10 mM Tris pH 7.5, 150 mM NaCl, 3.4 mM EDTA, 0.001% NP-40, 30 C. Particulars: tags: His6 N-terminal (pET28a); label: 5' 32P. An outline of the steps:
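These values rest on relative association constants, computed from read-count changes of each RNA species versus the control reaction and normalised to the cognate motif. Reads came from free RNA recovered by 8% native PAGE after purified RbFox RRM (wild type or mutant) at increasing concentrations was equilibrated for 10 min in 50 µL with 1 nM of a 5′-radiolabelled pool with 7 randomized nucleotides and DNA-annealed flanks.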
Background: In EMSA bound probe runs differently from free probe, usually more slowly.
As for B1, the binding signal was 0.255 KA relative to UGCAUGU. On to B2, for which the binding signal was 0.0961 KA relative to UGCAUGU.

For the molecule B3, the binding signal is 0.107 KA relative to UGCAUGU. In the case of B4, the binding signal was 0.128 KA relative to UGCAUGU. Consider B5, for which the binding signal was 0.127 KA relative to UGCAUGU. Turning to B6, the binding signal is 0.0833 KA relative to UGCAUGU.

Turning to B7, the binding signal was 0.0838 KA relative to UGCAUGU. The same measure for B8: 0.0922 KA relative to UGCAUGU. For B9, the binding signal is 0.0629 KA relative to UGCAUGU. Take B10: the binding signal was 0.0965 KA relative to UGCAUGU.

Take B11: the binding signal is 0.106 KA relative to UGCAUGU. B12: the binding signal is 0.0659 KA relative to UGCAUGU. Regarding B13, the binding signal was 0.0707 KA relative to UGCAUGU.

In the case of B14, the binding signal is 0.0595 KA relative to UGCAUGU. For B15, the binding signal is 0.254 KA relative to UGCAUGU. Take B16: the binding signal was 0.103 KA relative to UGCAUGU.

For B17, the binding signal was 0.0885 KA relative to UGCAUGU. The same measure for B18: 0.164 KA relative to UGCAUGU. Turning to B19, the binding signal is 0.146 KA relative to UGCAUGU. As for B20, the binding signal was 0.12 KA relative to UGCAUGU. In the case of B21, the binding signal was 0.0846 KA relative to UGCAUGU.

As to B22, the binding signal is 0.0944 KA relative to UGCAUGU. As to B23, the binding signal is 0.324 KA relative to UGCAUGU. In the case of B24 it was 0.146 KA relative to UGCAUGU; in that of B25, 0.167 KA relative to UGCAUGU.

Take B26: the binding signal is 0.1 KA relative to UGCAUGU.

Consider B27, for which the binding signal is 0.0609 KA relative to UGCAUGU. In the case of B28, the binding signal is 0.0623 KA relative to UGCAUGU. Turning to B29, the binding signal was 0.131 KA relative to UGCAUGU. As for B30, the binding signal is 0.114 KA relative to UGCAUGU. Consider B31, for which the binding signal is 0.217 KA relative to UGCAUGU.
